Laboratory results from article PMC3680383.
These are yes or no findings as the source states them, for the method shown. For some of these results: In cells and extracts the contact can be indirect. Some results given as binding are weak or reduced against the parent protein; the word gives no strength. For some of these results: Sequences can lack the tags named with a protein. One block for each molecule: values may come before it.

Protein sequences, listed by entry. Tags and fused reporters are not part of them. Lines headed by an entry give the natural chain unless they say otherwise; changes in a name come on top. Chains listed by the source or under a name are the forms on record and can include a tag or linker. Residues count along the entry.
UniProt Q08144: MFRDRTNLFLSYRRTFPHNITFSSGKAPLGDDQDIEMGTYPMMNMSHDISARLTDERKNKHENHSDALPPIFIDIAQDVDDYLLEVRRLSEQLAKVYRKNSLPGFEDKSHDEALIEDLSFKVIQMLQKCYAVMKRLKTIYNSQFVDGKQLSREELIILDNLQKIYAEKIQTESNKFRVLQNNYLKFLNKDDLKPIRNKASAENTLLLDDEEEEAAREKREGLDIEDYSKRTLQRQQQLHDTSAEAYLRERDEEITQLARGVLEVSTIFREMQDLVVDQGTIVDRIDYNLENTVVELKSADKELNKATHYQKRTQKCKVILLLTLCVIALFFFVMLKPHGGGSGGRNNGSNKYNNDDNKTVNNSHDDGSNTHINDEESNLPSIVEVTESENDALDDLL
UniProt P32854: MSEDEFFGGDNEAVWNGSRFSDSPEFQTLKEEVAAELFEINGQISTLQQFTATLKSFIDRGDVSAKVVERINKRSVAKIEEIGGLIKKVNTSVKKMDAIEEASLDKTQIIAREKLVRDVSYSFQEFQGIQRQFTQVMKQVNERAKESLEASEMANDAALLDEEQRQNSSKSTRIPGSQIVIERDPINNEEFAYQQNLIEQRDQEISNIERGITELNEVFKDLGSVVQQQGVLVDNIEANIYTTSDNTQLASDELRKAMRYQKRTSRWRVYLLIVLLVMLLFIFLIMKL
Habc domain of Pep12p (AA 1-200) fused to the DNA-binding domain of LexA: residues 1-200 of P32854
UniProt Q04338: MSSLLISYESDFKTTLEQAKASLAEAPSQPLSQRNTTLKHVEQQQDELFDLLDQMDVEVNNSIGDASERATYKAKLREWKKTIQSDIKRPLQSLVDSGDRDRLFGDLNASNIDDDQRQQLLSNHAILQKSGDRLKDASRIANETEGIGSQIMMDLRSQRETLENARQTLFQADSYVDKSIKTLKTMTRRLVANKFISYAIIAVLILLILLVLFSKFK
Vti1p without its transmembrane domain (AA 1-188) fused to the DNA-binding domain of LexA: residues 1-188 of Q04338
Habc domain of Vti1p (AA 1-115) fused to the DNA-binding domain of LexA: residues 1-115 of Q04338
SNARE motif of Vti1p (AA 116-188) fused to the DNA-binding domain of LexA: residues 116-188 of Q04338

What was measured:
[1] = molecular target: T1, Vam3p (S. cerevisiae (endogenous in strains SSY4 and SCY18)) (UniProt Q12241); test: co-IP; antiserum against Pep12p or Vam3p or monoclonal anti-c-myc 9E10 cross-linked to protein G-sepharose; spheroplasts of wild type (SSY4) or vti1-3 (SCY18) cells incubated 1 h at 24°C (wild type also at 37°C) before lysis in 20 mM HEPES-KOH pH 7.0, 100 mM KCl, 2 mM EDTA, 0.5% Triton X-100; beads overnight at 4°C; immunoblotting
T1 sequence: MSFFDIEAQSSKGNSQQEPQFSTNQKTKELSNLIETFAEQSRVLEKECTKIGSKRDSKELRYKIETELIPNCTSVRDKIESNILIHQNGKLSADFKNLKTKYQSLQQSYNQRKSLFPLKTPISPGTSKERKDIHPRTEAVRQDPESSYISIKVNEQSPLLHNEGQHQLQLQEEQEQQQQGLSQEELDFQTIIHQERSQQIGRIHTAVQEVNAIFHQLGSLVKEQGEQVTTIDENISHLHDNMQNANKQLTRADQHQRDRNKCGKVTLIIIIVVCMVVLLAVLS

[2] = molecular target: myc-Tlg2p (S. cerevisiae) (UniProt Q08144); test: as above
[3] = molecular target: Pep12p (S. cerevisiae (endogenous in strains SSY4 and SCY18)) (UniProt P32854); test: as above
[4] = molecular target: Pep12p (S. cerevisiae (endogenous in strains SSY4 and SCY18)) (UniProt P32854); test: co-IP; as a1, but spheroplasts of vti1-3 cells (SCY18) incubated 1 h at 37°C (restrictive temperature) before lysis; blots quantified, coprecipitated Vti1p normalized to the precipitated Qa-SNARE, Vti1p isolated at 24°C set to 100%
[5] = molecular target: Habc domain of Pep12p (AA 1-200) fused to the DNA-binding domain of LexA (S. cerevisiae) (UniProt P32854); test: two-hybrid; L40 cells; LexA DNA-binding domain fusions (pLexN) as bait, Vps51p in pVP16-3 as prey; growth on minimal medium lacking uracil, lysine, tryptophan, leucine and histidine with 20 mM 3-aminotriazole
[6] = molecular target: Habc domain of Vti1p (AA 1-115) fused to the DNA-binding domain of LexA (S. cerevisiae) (UniProt Q04338); test: as above
[7] = molecular target: SNARE motif of Vti1p (AA 116-188) fused to the DNA-binding domain of LexA (S. cerevisiae) (UniProt Q04338); test: as above
[8] = molecular target: Vti1p without its transmembrane domain (AA 1-188) fused to the DNA-binding domain of LexA (S. cerevisiae) (UniProt Q04338); test: as above

binding [1]: binds
binding [2]: binds
Molecule: vti1-3p (Vti1p Q29R W79R) (from UniProt Q04338 1-217)

binding [3]: binds
binding [1]: binds
binding [2]: binds
Molecule: Vti1p (wild type) (from UniProt Q04338 1-217)

binding [5]: no binding
binding [6]: no binding
binding [7]: no binding
binding [8]: no binding
B4: full-length Vps51p fused to the VP16 activation domain (protein, UniProt P36116 1-164)
chain: MAEQISHKKSLRVSSLNKDRRLLLREFYNLENEPNKGRQEARIGEKASEAHSGEEQVTDVNIDTEANTEKPVKDDELSATEEDLKEGSEDAEEEIKNLPFKRLVQIHNKLLGKETETNNSIKNTIYENYYDLIKVNDLLKEITNANEDQINKLKQTVESLIKEL

More lines, now with the values behind:

B1: Vam7p (protein, UniProt P32912 1-316)
chain: MAANSVGKMSEKLRIKVDDVKINPKYVLYGVSTPNKRLYKRYSEFWKLKTRLERDVGSTIPYDFPEKPGVLDRRWQRRYDDPEMIDERRIGLERFLNELYNDRFDSRWRDTKIAQDFLQLSKPNVSQEKSQQHLETADEVGWDEMIRDIKLDLDKESDGTPSVRGALRARTKLHKLRERLEQDVQKKSLPSTEVTRRAALLRSLLKECDDIGTANIAQDRGRLLGVATSDNSSTTEVQGRTNNDLQQGQMQMVRDQEQELVALHRIIQAQRGLALEMNEELQTQNELLTALEDDVDNTGRRLQIANKKARHFNNSA
binding [1]: binds

B2: Syn8p (protein, UniProt P31377 1-255)
chain: MDVLKLGYELDQLSDLVEERTRLVSVLKLAPTSNDNVTLKRQLGSILELLQKCAPNDELISRYNTILDKIPDTAVDKELYRFQQQVARNTDEVSKESLKKVRFKNDDELTVMYKDDDEQDEESPLPSTHTPYKDEPLQSQLQSQSQPQPPQPMVSNQELFINQQQQLLEQDSHLGALSQSIGRTHDISLDLNNEIVSQNDSLLVDLENLIDNNGRNLNRASRSMHGFNNSRFKDNGNCVIILVLIVVLLLLLLVL
binding [4]: no binding (condition: vti1-3 cells after 1 h at 37°C)
binding [3]: binds

B3: Nyv1p (protein, UniProt Q12255 1-253)
chain: MKRFNVSYVEVIKNGETISSCFQPFQKNENYGTITSANEQITPVIFHNLIMDMVLPKVVPIKGNKVTKMSMNLIDGFDCFYSTDDHDPKTVYVCFTLVDMPKILPIRILSGLQEYESNATNELLSSHVGQILDSFHEELVEYRNQTLNSSGNGQSSNGNGQNTISDIGDATEDQIKDVIQIMNDNIDKFLERQERVSLLVDKTSQLNSSSNKFRRKAVNIKEIMWWQKVKNITLLTFTIILFVSAAFMFFYLW
binding [1]: binds weakly
